From the RNAGym collection of RNA variant scans (doi:10.1093/nar/gkz1192) come the findings set out here.

The source gives no read counts; variants with many changes may rest on few reads.

B1: CPEB3 Ribozyme (parent)
chain: UAACAGGGGGCCACAGCAGAAGCGUUCACGUCGCAGCCCCUGUCAGAUUCUGGUGAAUCUGCGAAUUCUGCUGUAUAUCUC

Variants of B1 are the subject of the data set. Briefly: self-cleavage, relative activity (ratio to wild type); higher = more cleavage; in vitro, sequencing. The procedure, abridged: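 For each CPEB3 ribozyme variant, relative activity is its cleaved/total read fraction divided by the unmutated ribozyme's. Barcoded error-prone PCR libraries were transcribed by T7 RNA polymerase (5 hours, 37°C) and held in DNase I for 15 min before an EDTA stop, with cleavage occurring throughout. Template-switching reverse transcription and Illumina sequencing were used to read the RNAs. A 5-read minimum applied, and results are the mean of three batches.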
Turning to A21G U31A U69C, the self-cleavage came out at 0.14.

With A21G C29U U41A, the self-cleavage was 0.2. Then A20U A21U A28U C40U U78C, with 0.12.

For the variant A21G U31A G70U, the self-cleavage was 0.37. Take A21G A45U U74A A75U: the self-cleavage amounted to 0.51.

Take A21G U25C U60C G70C: the self-cleavage was found to be 0.08. The same measure for A20U U26C U48C A77G: 0.1; for A20U G22C U43C A45U U49A: 0.07; for A21G A47G U58C: 0.93. Regarding A21G A28G U58A, the self-cleavage is 0.21. As to A20U U43A U51A C81U, the self-cleavage came to 0.49. The same measure for A21G C27G U72A A75G: 0.12.

For A21G C34G U80C, the self-cleavage amounted to 0.15. Regarding A20U U31C G46U A64U, the self-cleavage was determined as 0.13. For the variant A20U U74C C81U, the self-cleavage is 0.62. As for A21G U31C A47G U51C U60A U72C, the self-cleavage was found to be 0.08. The same measure for A21G U41C U51C C68U A75U: 0.28; for A21G G22A U31C U41C U43A U54A U69C: 0.07; for A21C U69C U72A: 0.15. In the case of A21G U26G G63A, the self-cleavage turned out to be 0.07.

With A21G U26C C38U G46A U49A, the self-cleavage was determined as 0.04.

Turning to A20U U26A U76C U78C, the self-cleavage was determined as 0.2. Turning to A21G U31A U80A, the self-cleavage amounted to 0.32.

For the variant A21G U25C U78A, the self-cleavage stood at 0.35. The same measure for A21G U25A C38A: 0.12; for A21G A47C U49C U51A: 0.2; for A21G G52A C68U: 0.34. Consider A20U U72G U80A, for which the self-cleavage stood at 0.19. For the variant A21G U25C U72C A75G, the self-cleavage was 0.06.

In the case of A21C G36A U67C, the self-cleavage was found to be 0.08.

In the case of A21G U26A U43C U54C U80A, the self-cleavage amounted to 0.08. Take A20U A28U U49C: the self-cleavage was found to be 0.24. Consider A20U A28U A35G G42A U60C U76A U78C, for which the self-cleavage came out at 0.06. A21G U26C U43C: the self-cleavage turned out to be 0.18. Then A20U G42A G70A, with 0.12; and A21G U25C C29G A35U A57G U80C, with 0.05.

As for A20U U41C U60C A65G, the self-cleavage worked out at 0.37. Then A20U U25C G30C A56U, with 0.1.

A21G A28U U72C A75G A77G: the self-cleavage was determined as 0.16. Consider A20U C23A C27A U51A U60C, for which the self-cleavage worked out at 0.08.

For A20U U26C C29U U49C, the self-cleavage was found to be 0.07. The same measure for A20U A45G U72G: 0.2; for A21G U31C U54C A57G A64U: 0.02; for A21G A28U U31A U41C U48C: 0.23.

As for A21G A56U U60C U67C, the self-cleavage was determined as 0.12.

With A21G G61A U74C A77U, the self-cleavage was found to be 0.93.

For the variant A20U A56U U69G U80C, the self-cleavage is 0.11. On to A21G A45U U80A, for which the self-cleavage stood at 0.36. With A21G A28G U69C G70A, the self-cleavage is 0.28. The same measure for A21G C37U U48C G70C: 0.07. Then A20U A21U A56U, with 0.17; and A20U U25A U48A U54C, with 0.04; and A21G A28G U67C A77G U80C, with 0.04.

As for A20U G33A C34U U43C A57G U69C, the self-cleavage amounted to 0.11.

A20U U60A C62U U67C U74C: the self-cleavage is 0.08. Then A20U G24U U78C, with 0.4.

On to A21G U25G C34G, for which the self-cleavage came out at 0.14.

Regarding A21G A28C U31C U69C, the self-cleavage is 0.06. Consider A21G A45U A65U, for which the self-cleavage was 0.14. The same measure for A21G G24A A28G A45G A56G: 0.14; for A21G U26A U51C: 0.35; for A20U A57G U78C: 0.23. Then A21G U25A U31A U43C U54C, with 0.21. For A21G A64U U69G, the self-cleavage stood at 0.33. Then A21G C23U U25C A64U, with 0.39; and A21G A28G U41A U43C, with 0.08. In the case of A21G U41C U51C, the self-cleavage was found to be 0.61. Take A21G U41A A45U G61A U66A: the self-cleavage amounted to 0.1.

For A21G U26C A28U A57G, the self-cleavage stood at 0.08. The same measure for A20U U25A A28G C40U U41G U78C: 0.15; for A21G G63A U69G: 0.18; for A20U U26A U41C A56U U60A: 0.15.

In the case of A21G C29U G55U U72C, the self-cleavage was determined as 0.32.

For the variant A20U U41C C44U A65G U69A, the self-cleavage was determined as 0.06. Then A20U A28G C38U C50U A57G U80C, with 0.07. Take A21G U25C U26C U41C: the self-cleavage amounted to 0.08. Take A21G C29U C38G U48C U60C: the self-cleavage was determined as 0.08. For the variant A21G A28U U41C G53A U72C, the self-cleavage is 0.3. Then A21C C29U A57G U60C, with 0.05; and A20U U41C A57U, with 0.21; and A21G C38A U69C, with 0.1. The same measure for A21G A47G U66C: 1.05. As to A21G U31C A65G, the self-cleavage is 0.25. Then A21G C32G C37U C38G A75G U80C, with 0.03. On to A21G A28G U49A U54A A57C U72C, for which the self-cleavage is 0.04. In the case of A20U G52C A64U, the self-cleavage came out at 0.24. Consider A21G A45C U49A U60A U69C A77G, for which the self-cleavage was found to be 0.17. Then A20U G36U U60C U69C, with 0.05; and A21G U41C U66C, with 1.04. With A20U C38G A45G U54A C59A C81A, the self-cleavage is 0.02. For the variant A21G C44G U60C U66C, the self-cleavage came to 0.06.

For the variant A20U A35G U43C U60G U72C U78C, the self-cleavage was found to be 0.11. The same measure for A21G U41C U54G: 0.34; for A20U U26C A28G U48C: 0.24; for A21G C27A G33A U49C: 0.17. Take A21G G30U U51C U76A A77U: the self-cleavage was determined as 0.1. Then A20U U43C U69A C71A U72C, with 0.11; and A21G A35G U51C A56U A64G, with 0.49. The same measure for A21G A28G G46C: 0.26. Then A21G A64G U80C, with 0.52; and A20U U43C A45C U80C, with 0.24. A21C G22A C23A U41A A45G U74C U80C: the self-cleavage came out at 0.09.

Turning to A20U U26C U41C C71A A75C, the self-cleavage amounted to 0.11.

Turning to A21G A57U U67C A75G, the self-cleavage is 0.19.

A20U U31A U58A U66C: the self-cleavage is 0.06. The same measure for A21G G24C C27U A35U U54C: 0.06. The same measure for A20U A45C U54C: 0.1; for A21G U25A U72A: 0.18. Then A21C A57G C71A, with 0.05.

Regarding A21C U54C U58C, the self-cleavage worked out at 0.17. As for A20U A56G U60A, the self-cleavage was 0.39. For A20U G24C U25C U31C, the self-cleavage worked out at 0.11. On to A20U C27A U54G U60C G73A, for which the self-cleavage amounted to 0.11. Take A21G C37G C44A A45U U58C U66C U72G: the self-cleavage was 0.04. In the case of A21G A35G A65C U67C, the self-cleavage stood at 0.2. As for A20U C68G U80C, the self-cleavage was found to be 0.06. Then A21G U25A U69C U78A C79A, with 0.08; and A21G A56G U66A, with 0.14; and A21G A35G U49C, with 0.3. The same measure for A21G C37G U76G U78C: 0.12.

As to A20U U25C U51G U80A, the self-cleavage was 0.12. As to A21G U25C U54A A64G U80C, the self-cleavage worked out at 0.13. On to A20U U67G U69C, for which the self-cleavage was 0.17.

Consider A20U A28U U41A A45U A57G U78C, for which the self-cleavage was determined as 0.05. For the variant A21G A35U U43C U80A, the self-cleavage came to 0.21.

Take A21G C44A U54G: the self-cleavage amounted to 0.25. Then A21G U41C A65G, with 0.47. Then A21G U41A U51A U58A, with 0.15; and A21G U31G A64G C71U, with 0.15. For A21G U41A A64U U78A, the self-cleavage was 0.06.

As for A21G U25C C32A U48C, the self-cleavage was 0.04. The same measure for A21G A28G U43C U80C: 0.38; for A20U U51A U66C: 0.22; for A21G G24C C32U A45G A56G U66C U69A: 0.04.

A20U C37U G63A U67C: the self-cleavage was 0.12.

On to A20U U25G G30A U67C U78A, for which the self-cleavage came out at 0.11. On to A21G C29U C38U A45U, for which the self-cleavage was determined as 0.16. The same measure for A21G C38U U76C: 0.6; for A21G U25A U51C: 0.18. The same measure for A20U A57G G61A: 0.16; for A20U A64U A65G: 0.12; for A21G G22C A45U U74G: 0.24. Then A21G C27A U49C U69C U76C, with 0.12.

Take A20U U26C U31C A35G U48A U49A U58C: the self-cleavage turned out to be 0.1.

As for A21G A47G U72A, the self-cleavage came out at 0.32. Turning to A21G A35G C71A, the self-cleavage was 0.38. The same measure for A21G A35G C37U U41C: 1.18; for A20U U31A A35G U66C A77G: 0.42. The same measure for A20U A28G U41C C50U A57G U74C: 0.23; for A21C A28G U54G U58C U74C U78A: 0.03. The same measure for A21G A45G U67C U72C: 0.31; for A20U G42A A57U A64G: 0.06; for A21G A28G U31C U43A A56G A64U U66C: 0.07. Turning to A21G U25C A45C G46U, the self-cleavage was 0.12.

In the case of A21G U31A A45G U51C U60C, the self-cleavage came out at 0.26. Regarding A20U C34G C68A, the self-cleavage amounted to 0.

For the variant A21G C38U U48C C62U, the self-cleavage was found to be 0.14. In the case of A21G A45U U49C G73A, the self-cleavage came out at 0.21.

On to A21G A35U G52A U80G, for which the self-cleavage was determined as 0.26.

For the variant A21G A56C A77G U78G, the self-cleavage came out at 0.31. A20U C39U A56U: the self-cleavage stood at 0.18. As for A21G C29A U49C U80C C81U, the self-cleavage came out at 0.1. Then A21G U25A G42A U49C, with 0.06.

With A20U U49A U69A, the self-cleavage was 0.1.

For the variant A21G G42A U43A A56U, the self-cleavage was 0.37. Then A21G A35G U41C U69C, with 0.19. The same measure for A20U A28G G33U U51A U67C: 0.05.
